Measured values reported in PubChem BioAssay AID686978 (National Center for Advancing Translational Sciences (NCATS), 2013).
About 64,000 (15%) of roughly 420,000 compounds were called active. The shares of active, inactive and inconclusive entries below differ from those in the screen. The call rests on the fitted dose curve; in most records, active means well fitted inhibition curve with a large enough effect; inconclusive means small, poorly fitted or top-dose-only effect; inactive means flat fitted curve, though single readings scatter. No potency is given beside an inconclusive call; the fits are too rough.

Experiment: qHTS for Inhibitors of human tyrosyl-DNA phosphodiesterase 1 (TDP1): qHTS in cells in absence of CPT; further: nearly all actives have a fitted effect of over 55% in size
Conditions: DT40 Tdp1-/- hTDP1 cells, no CPT, ATP luminescence, 48 h; series mostly up to 46.2 µM
In short: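 Stably hTDP1-transfected Tdp1-null chicken DT40 cells were treated with library compounds minus camptothecin and grown for at least 48 hr at 37 °C, after which cellular ATP was quantified by luminescence.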
Potency means the concentration at half of the fitted maximal effect; tags describe the fitted curve by direction and shape.

| Compound | Potency |
| --- | --- |
| Cc1nn(C)c(C)c1CN(C)C(=O)c1nn2c(c1Br)NC(c1cccs1)CC2C(F)(F)F (stereo unspecified) | inconclusive [inhibitor, single point] |
| CC(=O)N1CCN(c2ccc(NC(=O)c3cccc(C)c3)cc2)CC1 | inactive |
| Cc1cc(C)n(CCCN2C(=O)c3cccc4cccc(c34)C2=O)n1 | inconclusive [inhibitor, single point] |
| Cc1ccc(-c2nnc(Oc3ccc(NC(=O)c4ccccc4)cc3)c3ccccc23)cc1 | inconclusive [inhibitor, single point] |
| Cc1nn(CC(=O)N2CCN(c3ccccc3F)CC2)c(=O)c2cccn12 | inactive |
| Cc1oc2c(cc(NS(=O)(=O)c3cccs3)c3ccccc32)c1C(=O)OC(C)C | inconclusive [inhibitor, single point] |
| CCN(CC)c1ccc2nc3c(=O)n(C)c(=O)n(C)c3nc2c1 | inconclusive [inhibitor, single point] |
| CC(C)c1ccc(NC(=O)[C@H]2O[C@@H]3OC(C)(C)O[C@@H]3[C@H]3OC(C)(C)O[C@H]32)cc1 | active: 20.6 µM |
| Cc1c(Cc2ccccc2)c(=O)oc2c(O)c(O)ccc12 | inconclusive [inhibitor, single point] |
| CC(C)(C)OC(=O)N/N=C\c1ccc([N+](=O)[O-])s1 | inconclusive [inhibitor, single point] |
| CCCCCCn1c(=O)n2n(c1=O)C[C@]1(OC(=O)NC3CC3)CN(S(=O)(=O)c3ccc(C)cc3)C[C@]1(O)C2 | active: 11.6 µM |
| CCO/C=N/c1c(C#N)c2c(c(=S)n1C)COC(C)(C)C2 | inactive |
| CCOCc1nnc(NC(=O)CCS(=O)(=O)Cc2ccccc2)s1 | active: 18.4 µM |
| CCOC(=O)C1CCN(CC(=O)c2c(C)n(C)c3ccc(OC)cc23)CC1 | inactive |
| O=C(C[n+]1cccc(NC(=O)c2ccccc2)c1)c1ccccc1 | inconclusive [inhibitor, single point] |
| Cc1cc(OC(C)C(=O)N(Cc2ccco2)Cc2ccco2)cc(C)c1Cl (stereo unspecified) | active: 9.2 µM |
| CC(C)NC(=O)N(C)C[C@H]1OCCCC[C@@H](C)Oc2ccc(N(C)C)cc2C(=O)N([C@H](C)CO)C[C@@H]1C | inconclusive [inhibitor, single point] |
| Cc1ccc(S(=O)(=O)N(C)CC(=O)NNC(=O)Cc2ccccc2F)cc1 | inactive |

| Compound | Potency |
| --- | --- |
| COc1ccc(N=C2SC(CC(=O)Nc3ccccc3)C(=O)N2CC2CCCO2)cc1 (stereo unspecified) | inconclusive [inhibitor, single point] |
| CCNc1ncc2nc(-c3cc(F)cc(F)c3)c(=O)n(CCC#N)c2n1 | inactive |
| Cc1cc(Cl)ccc1NNC(=O)c1c(C)noc1C | inactive |
| Nc1nc(Nc2ccc(Cl)cc2Cl)nc(C(F)(F)F)n1 | inconclusive [inhibitor, partial curve] |
| COc1ccccc1/C=N/Nc1nncc2ccccc12 | inconclusive [inhibitor, single point] |
| Cc1ccc(NC(=O)C(c2ccccc2)N2CCN(CC(=O)NC3CC3)CC2)cc1Cl (stereo unspecified) | inconclusive [inhibitor, single point] |
| COc1ccccc1OCC(=O)Nc1cc(Cl)ccc1N1CCCCC1 | inactive |
| Cc1ccccc1CN1CCN(S(=O)(=O)c2cccs2)CC1 | inconclusive [inhibitor, single point] |
| CC(C)c1nn2c(=O)cc(COC(=O)c3cccc(NC(=O)CCc4ccccc4)c3)nc2s1 | inactive |
| O=C(CSc1oc(-c2ccc(F)cc2)nc1S(=O)(=O)c1ccccc1)c1ccc(Cl)cc1 | active: 9.2 µM |
| CSCCC(NC(=O)OCc1ccccc1)C(=O)O (stereo unspecified) | inactive |
| Cc1ccc(S(=O)(=O)N2CCN(C(=O)Cc3c(F)cccc3Cl)CC2)cc1 | inactive |
| CCn1nc(C)c(CCN(C)C(=O)Nc2cc(Cl)c(OC)cc2OC)c1C | inconclusive [inhibitor, single point] |
| Cc1cccc2cc(CN(Cc3ccc(F)cc3)C(=O)N(C)C)c3nnnn3c12 | active: 20.6 µM |
| O=C(Nc1ccc(Cl)cc1Cl)c1csc(-c2cccnc2)n1 | inactive |
| O=C(c1ccc(N2CCCCC2)c([N+](=O)[O-])c1)N1CCN(c2ccccn2)CC1 | inconclusive [inhibitor, single point] |
| Cc1cccc(C)c1-n1c(C)cc(/C=N\Nc2ccc([N+](=O)[O-])cn2)c1C | active: 14.6 µM |
| CCC1CCCCN1S(=O)(=O)c1ccc(C(=O)Nc2nnc(-c3ccccc3Cl)o2)cc1 (stereo unspecified) | active: 6.51 µM |
